The campaign covered roughly 340,000 compounds. About 12,000 (3.5%) were called active. Inconclusive means that the source gave no clear call. Such entries were picked first, then a sample of the others. The call rests on the fitted dose curve; in most records, active means well fitted inhibition curve with a large enough effect; inconclusive means small, poorly fitted or top-dose-only effect, or another doubt; inactive means no such curve, though single readings can be large or run the other way. No potency is given beside an inconclusive call; the fits are too rough.
Experiment: qHTS Assay for Inhibitors of Hepatitis C Virus (HCV)
Details: Huh7.5.1 HCVcc-Cre (HCVcc is cell-culture hepatitis C virus) infection, luciferase reporter, 44 h; activity change, negative = inhibition: at 41.8 µM (top of the series) unless noted
Outline: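 Seed cells (1,000/well) for 4 h; treat with compound and infect with HCVcc-Cre, moi about 0.5. Incubate 44 h, then detect luciferase activity.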
On the % scale 0 is the no-effect control and ±100 the full control effect; potency means the concentration at half of the fitted maximal effect; tags describe the fitted curve by direction and shape.

SMILES	activity change, negative = inhibition	Potency
CN(CC(=O)Nc1ccc2c(c1)CCC2)CC(=O)Nc1ccccc1Br	inactive: 4.62%	
Nc1nnnn1CC(=O)N/N=C/c1cc([N+](=O)[O-])ccc1O	inactive: 4.35%	
COc1ccc([N+](=O)[O-])cc1NC(C)C		inconclusive [inhibitor, single point]
COc1ccc(-c2cc(-c3nc4ccccn4c3NCc3ccccc3)ccc2OC)cc1		inconclusive [inhibitor, single point]
Cc1cc(C)c2nc3nc(C)cc(C)c3c(N)c2c1		inconclusive [inhibitor, partial curve]
CC1CCN(CCCNC(=O)c2ccc(CSCc3cccc(Cl)c3)o2)CC1		inconclusive [inhibitor, single point]
N=c1n(CCN2CCCCC2)c2ccccc2n1CC(O)c1ccc(Cl)c(Cl)c1 (stereo unspecified)		active: 12.6 µM
COc1nnc(OC)c2ccccc12		inconclusive [inhibitor, single point]
COc1ccc(CC(NC(C)=O)C(=O)NC2CCN(c3nc(C)cc(C)c3C#N)CC2)c(OC)c1 (stereo unspecified)		inconclusive [inhibitor, partial curve]
CN(CC(=O)N1CCCC1)S(=O)(=O)c1cccc(Cl)c1	inactive: -12.4%	
CCC(C(=O)NC1CCCC1)N(C(=O)c1snc(C(N)=O)c1N)c1ccc(C)cc1C (stereo unspecified)		inconclusive [inhibitor, partial curve]
CNC(=S)Nc1cccc([N+](=O)[O-])c1	inactive: 5.58%	
Cc1ccc(-c2nnc(SCC(=O)CC(=O)Nc3ccccc3)n2C)cc1	inactive: -4.19%	
O=C(C[n+]1cc(-c2ccc(Cl)cc2)n2c1CCC2)Nc1nc(-c2ccc(F)cc2)cs1		active: 10 µM
CCCCCn1c(N)c(-c2nc3ccccc3s2)c2c([N+](=O)[O-])nn(C)c(=O)c21		inconclusive [inhibitor, single point]
CC(N)C(=O)NC(C(=O)N1CCCC1C(=O)NC(c1ccccc1)c1ccccc1)C(C)C (stereo unspecified)		inconclusive [inhibitor, single point]
CCOCCn1c(CN(Cc2ccccc2)Cc2ccccc2)nc2c1c(=O)[nH]c(=O)n2C	inactive: 12.2%	
CC[C@@H](C)C(C(=O)N1CCN(C(=O)OC(C)(C)C)CC1)n1cc(-c2cn([C@@H](C)C(=O)N3CCN(C(=O)OC(C)(C)C)CC3)nn2)nn1 (stereo partly specified)		inconclusive [inhibitor, single point]
COc1cccc(OCCSc2nnc3sc4ccccc4n23)c1	inactive: -2.98%	
COc1ccc(C(O)c2nc3ccccc3n2C)cc1OC (stereo unspecified)		active: 2.82 µM
COc1ccccc1C(=O)ON=C1c2ccccc2-c2ccccc21		inconclusive [inhibitor, single point]
O=C(OCn1nnc2ccccc2c1=O)c1cccnc1	inactive: 27.1%	
CCn1c(/C=C\c2ccccc2C)nc2ccccc2c1=O		inconclusive [inhibitor, partial curve]
COC(=O)COc1ccc(NC(=O)c2ccco2)cc1	inactive: 31%	
COc1cc(-c2noc(C)c2C(=O)NCCCN2CCOCC2)cc(OC)c1OC	inactive: -1.79%	
CC(Sc1nnnn1C)C(=O)Nc1nc(-c2ccc(F)c(F)c2)cs1 (stereo unspecified)		inconclusive [inhibitor, partial curve]

SMILES	activity change, negative = inhibition	Potency
Cc1nn(C)c(Oc2ccc(Cl)cc2)c1C(=O)Nc1ccc(F)cc1F		active: 10 µM
O=C(Nc1nc2c(s1)CCc1ccccc1-2)c1ccco1		active: 31.6 µM
C/C(CC(=O)Nc1ccccn1)=N\NC(=O)c1cccc(C)c1	inactive: 10.4%	
Cc1ccc(S(=O)(=O)c2cc3ccccc3nc2N)cc1	inactive: -15.1%	
O=C(N/C(=C\c1ccccc1Cl)C(=O)N1CCOCC1)c1ccc([N+](=O)[O-])cc1		inconclusive [inhibitor, single point]
CCCC(=O)N1CCN(c2ccc([N+](=O)[O-])c(NC(C)c3ccccc3)c2)CC1 (stereo unspecified)	inactive: 9.53%	
CCCN(CC(=O)Nc1ccccc1C)C(=O)C1CC(=O)N(Cc2ccccc2)C1 (stereo unspecified)	inactive: -2.71%	
COc1cc2nc(N(CCCN(C)C)C(=O)c3ccc(C(=O)c4ccccc4)cc3)sc2cc1OC		inconclusive [inhibitor, full curve]
CCn1cc(C(=O)NCc2ccccc2OC)c(=O)c2ccc(C)nc21		inconclusive [inhibitor, single point]
CCCN(CCC)C1=CC(=[N+]2CCCC2)CC(C)(C)C1		inconclusive [inhibitor, full curve]
CCOc1ccccc1/C=C/c1nc2ccccc2[nH]c1=O		inconclusive [inhibitor, single point]
COc1cc([N+](=O)[O-])ccc1NC(=O)NCC1CCN(Cc2ccc(Cl)cc2)CC1		active: 12.6 µM
O=C(O)c1cc2ccccc2c(N=Nc2cccnc2)c1O		inconclusive [inhibitor, single point]
CCOC(=O)c1c(C)[nH]c(C(=O)COc2ccc3c(c2)OCO3)c1C		inconclusive [inhibitor, single point]
COc1ccc(C[C@@H]2OC3(C=CC(=O)C=C3)O[C@H]2Cc2ccc(OC)cc2)cc1		active: 3.98 µM
CCOC(=O)C1=C(C(=O)OCC)c2ccc(OC)c(OC)c2C1		inconclusive [inhibitor, single point]
Cc1ccc(-n2ncc3c(NNC(=O)Cc4ccccc4)ncnc32)cc1		inconclusive [inhibitor, single point]
CC1Oc2cc3c(-c4c(O)cc(O)c5c(O)c6c(cc45)OC(C)C(C)C6=O)c(O)cc(O)c3c(O)c2C(=O)C1C (stereo unspecified)		inconclusive [inhibitor, single point]
CCOc1ccc(N2C(=O)c3cccnc3C2Nc2ccc(C)cc2)cc1 (stereo unspecified)	inactive: -21.8%	
O=C(NCCCCc1ccccc1)c1cccc([N+](=O)[O-])c1		inconclusive [inhibitor, single point]
Cc1nc(SCC(=O)NCC(F)(F)F)c2c(-c3cccs3)csc2n1		inconclusive [inhibitor, full curve, poor fit]
O=C(NC(=S)Nc1ccccc1N1CCCC1)c1ccc([N+](=O)[O-])cc1		inconclusive [inhibitor, single point]
CCOC(=O)C1CCN(c2c(NCCN(CC)c3ccccc3)c(=O)c2=O)CC1		inconclusive [inhibitor, single point]
Cc1ccnc(Cc2ccccc2)n1	inactive: 19.5%	
O=C(NCc1ccccc1C(F)(F)F)c1cccc2c1C(=O)c1ccc(N3CCCCC3)cc1S2(=O)=O		inconclusive [inhibitor, partial curve, poor fit]
COc1ccc(CCNC(=O)CN2C(=O)CCSc3ccccc32)c(OC)c1		inconclusive [inhibitor, single point]

SMILES	activity change, negative = inhibition	Potency
Cc1nc2cc(-c3ccc(Cl)cc3)nn2c(NCCN(C)C)c1C		active: 17.8 µM
CCOc1cc(N2CCOCC2)c(OCC)cc1NC(=O)COc1ccccc1[N+](=O)[O-]		inconclusive [inhibitor, partial curve]
CCN(CC)c1ccc(NC(=O)COc2ccccc2C)cc1S(=O)(=O)Nc1ccccc1OC		inconclusive [inhibitor, single point]
Cc1ccc(NC2=NCC(Cc3ccc(Br)cc3)S2)cc1 (stereo unspecified)		inconclusive [inhibitor, single point]
O=C(NC1CCCC1)c1ccc2nc(-c3ccco3)c(-c3ccco3)nc2c1		inconclusive [inhibitor, single point]
COc1ccc(C(=O)N2CCCC(Nc3ccc(C)c(C)c3)C2)cc1 (stereo unspecified)	inactive: -2.67%	
O=C(c1ccccc1F)N1CCCc2ccccc21	inactive: 5.19%	
CC(C)(C)NC(=O)CON=C1c2ccccc2-c2ccccc21		inconclusive [inhibitor, single point]
NC(=O)C1(C(N)=O)OC1c1ccccc1 (stereo unspecified)	inactive: 9.05%	
O=C(NCCOc1ccccc1)c1ccccc1NC(=O)C1CCCO1 (stereo unspecified)	inactive: -16.8%	
COC(=O)c1ccccc1NC(=O)c1ccc(COc2ccccc2)o1		inconclusive [inhibitor, single point]
COc1ccccc1CC(=O)N1CCCC(CCC(=O)NCc2ccccc2F)C1 (stereo unspecified)	inactive: -11.6%	
CCCNc1nc2c(c(=O)[nH]c(=O)n2C)n1CCC(C)C	inactive: 6.96%	
COc1ccc(C(=O)CC(=O)C(=O)Nc2ccc(C)cc2Cl)cc1		active: 10 µM
O=C(COC(=O)c1cc(=O)[nH]c2ccccc12)NCCc1ccccc1	inactive: -7.28%	
Cc1ccc(Cn2c(NC(=O)c3ccco3)nc3ccccc32)cc1	inactive: -3.39%	
Cc1cccc(NC(=O)c2cc(NC(=O)C3CCCCC3C(=O)O)ccc2Cl)n1 (stereo unspecified)		inconclusive [inhibitor, single point]
COCCCNC(=O)COC(=O)c1ccc(-c2nc3ccccc3s2)s1	inactive: 13.9%	
Nc1sccc1C(=O)c1ccc(Cl)cc1	inactive: -11.2%	
Cc1ccc(SCC(=O)Nc2ccc(-c3nnc(-c4ccco4)o3)cc2)cc1		active: 11.2 µM
CCOc1ccc(CCNC(=O)COC(=O)COc2ccc(Br)cc2)cc1OCC	inactive: -5.69%	
O=C(NC(=S)Nc1ccc(F)c(Cl)c1)C1CC1	inactive: -9.6%	
Cc1ccc(C(c2nnnn2C2CCCC2)N2CCc3ccccc32)cc1 (stereo unspecified)		inconclusive [inhibitor, single point]
CCOc1ccccc1NC(=O)c1cccc2ccccc12		inconclusive [inhibitor, single point]

— PubChem BioAssay AID651820 (National Center for Advancing Translational Sciences (NCATS), 2012)
